Assay results from the supplement of paper PMC12217912.
Some of the results follow. The full chains were built here from the parent and the listed change. Inactive controls read about 0.05.

B1: TEV protease; numbered along this chain (parent)
chain: MGESLFKGPRDYNPISSSICHLTNESDGHTTSLYGIGFGPFIITNKHLFRRNNGTLVVQSLHGVFKVKDTTTLQQHLVDGRDMIIIRMPKDFPPFPQKLKFREPQREERICLVTTNFQTKSMSSMVSDTSCTFPSGDGIFWKHWIQTKDGQCGSPLVSTRDGFIVGIHSASNFTNTNNYFTSVPKNFMELLTNQEAQQWVSGWRLNADSVLWGGHKVFMVKPEEPFQPVKEATQL

Variants of: B1
Assay: raw area under fraction-flipped curve 0-4 h after induction (AUC4h, not background-subtracted), DNA-recorder readout of cleavage of the substrate (dimensionless); higher = more cleavage of the substrate by the protease variant
Conditions: temperature: 34 °C; time window: 0-4 h after rhamnose induction
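Also: Bxb1 expression induced with 0.2% (w/v) L-rhamnose at OD600 near 0.5, cultures sampled hourly, flipped fraction per protease–substrate barcode pair counted by paired-end Illumina sequencing.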

Variant | area with substrate ENLYFQC | area with substrate ENLYFQG | area with substrate ENLYFQK | area with substrate ENLYFQL | area with substrate ENLYFQP | area with substrate ENLYFQR | area with substrate ENLYFQS | area with substrate ENLYFQT | area with substrate ENLYFQV | area with substrate ENLYFQW | area with substrate ENLYFQY | area with substrate ENLYFQD | area with substrate ENLYFQE | area with substrate ENLYFQF | area with substrate ENLYFQH | area with substrate ENLYFQI | area with substrate ENLYFQM | area with substrate ENLYFQN | area with substrate ENLYFQQ
MGESLFKGPRDYNPISSSICHLTNESDGHTTSLYGIGFGPFIITNKHLFRRNNGTLVVQSLHGVFKVKDTTTLQQHLVDGRDMIIIRMPKDFGPFPQKLKFREPQREERICLVTTNFQTKSMSSMVSDTSCTFPSGDGIFWKHWIQTKDGQCGSPLVSTRDGFIVGIHSASNFTNTNNYFTSVPKNFMELLTNQEAQQWVSGWRLNADSVLWGGHKVFMVKPEEPFQPVKEATQL [P93G] | 0.118 | 0.0898 | 0.0686 | 0.0642 | 0.0277 | 0.0611 | 0.103 | 0.0825 | 0.0836 | 0.0538 | 0.0726 | – | – | – | – | – | – | – | –
MGESLFKGPRDYNPISSSICHLTNESDGHTTSLYGIGFGPFIITNKHLFRRNNGTLVVQSLHGVFKVKDTTTLQQHLVDGRDNIIIRMPKDFPPFPQKLKFREPQREERICLVTTNFQTKSMSSMVSDTSCTFPSGDGIFWKHWIQTKDGQCGSPLVSTRDGFIVGIHSASNFTNTNNYFTSVPKNFMELLTNQEAQQWVSGWRLNADSVLWGGHKVFMVKPEEPFQPVKEATQL [M83N] | 0.0532 | 0.0421 | 0.043 | 0.0471 | 0.0552 | – | 0.0544 | 0.0501 | – | 0.051 | – | 0.0427 | 0.0455 | 0.0377 | 0.0625 | 0.0376 | 0.0382 | 0.0436 | –
MGESLFKGPRDYNPISSSICHLTNESDGHTTSLYGIGFGPFIITNKHLFRRNNGTLVVQSLHGVFKVKDTTTLQQHLVDGRDMIIIRMIKDFPPFPQKLKFREPQREERICLVTTNFQTKSMSSMVSDTSCTFPSGDGIFWKHWIQTKDGQCGSPLVSTRDGFIVGIHSASNFTNTNNYFTSVPKNFMELLTNQEAQQWVSGWRLNADSVLWGGHKVFMVKPEEPFQPVKEATQL [P89I] | 0.0822 | – | – | – | 0.0403 | 0.0524 | 0.0669 | 0.0555 | – | – | 0.0674 | – | – | 0.0465 | 0.0608 | – | 0.0509 | 0.0399 | –
MGESLFKGPRDYNPISSSICHLTNESDGHTTSLYGIGFGPFIITNKHLFRRNNGTLVVQSLHGVFKVKDTTTLQQHLVDGRDMIIIRMDKDFPPFPQKLKFREPQREERICLVTTNFQTKSMSSMVSDTSCTFPSGDGIFWKHWIQTKDGQCGSPLVSTRDGFIVGIHSASNFTNTNNYFTSVPKNFMELLTNQEAQQWVSGWRLNADSVLWGGHKVFMVKPEEPFQPVKEATQL [P89D] | 0.121 | – | – | – | – | – | 0.0972 | – | – | – | – | – | – | – | – | – | 0.0848 | – | –
MGESLFKGPRDYNPISSSICHLTNESDGHTTSLYGIGFGPFIITNKHLFRRNNGTLVVQSLHGVFKVKDTTTLQQHLVDGRDMKIIRMPKDFPPFPQKLKFREPQREERICLVTTNFQTKSMSSMVSDTSCTFPSGDGIFWKHWIQTKDGQCGSPLVSTRDGFIVGIHSASNFTNTNNYFTSVPKNFMELLTNQEAQQWVSGWRLNADSVLWGGHKVFMVKPEEPFQPVKEATQL [I84K] | 0.0589 | 0.0558 | 0.046 | 0.0482 | – | – | 0.0566 | 0.058 | – | 0.0607 | 0.0545 | – | 0.042 | – | 0.0499 | 0.0508 | – | – | –
MGESLFKGPRDYNPISSSICHLTNESDGHTTSLYGIGFGPFIITNKHLFRRNNGTLVVQSLHGVFKVKDTTTLQQHLVDGRDMLIIRMPKDFPPFPQKLKFREPQREERICLVTTNFQTKSMSSMVSDTSCTFPSGDGIFWKHWIQTKDGQCGSPLVSTRDGFIVGIHSASNFTNTNNYFTSVPKNFMELLTNQEAQQWVSGWRLNADSVLWGGHKVFMVKPEEPFQPVKEATQL [I84L] | 0.0869 | 0.0959 | 0.0486 | – | – | 0.0706 | 0.0903 | 0.0755 | – | – | – | 0.0657 | – | – | 0.0678 | – | 0.0747 | – | 0.0655
MGESLFKGPRDYNPISSSICHLTNESDGHTTSLYGIGFGPFIITNKHLFRRNNGTLVVQSLHGVFKVKDTTTLQQHLVDGRDMYIIRMPKDFPPFPQKLKFREPQREERICLVTTNFQTKSMSSMVSDTSCTFPSGDGIFWKHWIQTKDGQCGSPLVSTRDGFIVGIHSASNFTNTNNYFTSVPKNFMELLTNQEAQQWVSGWRLNADSVLWGGHKVFMVKPEEPFQPVKEATQL [I84Y] | 0.0822 | – | 0.0676 | 0.0559 | – | – | 0.0569 | 0.035 | – | – | 0.0504 | – | – | – | – | 0.049 | 0.0518 | 0.0545 | –
MGESLFKGPRDYNPISSSICHLTNESDGHTTSLYGIGFGPFIITNKHLFRRNNGTLVVQSLHGVFKVKDTTTLQQHLVDGRDMIEIRMPKDFPPFPQKLKFREPQREERICLVTTNFQTKSMSSMVSDTSCTFPSGDGIFWKHWIQTKDGQCGSPLVSTRDGFIVGIHSASNFTNTNNYFTSVPKNFMELLTNQEAQQWVSGWRLNADSVLWGGHKVFMVKPEEPFQPVKEATQL [I85E] | 0.049 | – | – | 0.0409 | – | 0.0597 | 0.0441 | – | – | 0.0393 | – | – | – | – | – | – | – | – | –
MGESLFKGPRDYNPISSSICHLTNESDGHTTSLYGIGFGPFIITNKHLFRRNNGTLVVQSLHGVFKVKDTTTLQQHLVDGRDMIIIRMPKDWPPFPQKLKFREPQREERICLVTTNFQTKSMSSMVSDTSCTFPSGDGIFWKHWIQTKDGQCGSPLVSTRDGFIVGIHSASNFTNTNNYFTSVPKNFMELLTNQEAQQWVSGWRLNADSVLWGGHKVFMVKPEEPFQPVKEATQL [F92W] | 0.103 | – | – | 0.0638 | – | – | 0.114 | 0.0544 | – | – | 0.0885 | 0.0665 | – | – | – | – | 0.095 | 0.103 | –
MGESLFKGPRDYNPISSSICHLTNESDGHTTSLYGIGFGPFIITNKHLFRRNNGTLVVQSLHGVFKVKDTTTLQQHLVDGRDMIIIRMPKDQPPFPQKLKFREPQREERICLVTTNFQTKSMSSMVSDTSCTFPSGDGIFWKHWIQTKDGQCGSPLVSTRDGFIVGIHSASNFTNTNNYFTSVPKNFMELLTNQEAQQWVSGWRLNADSVLWGGHKVFMVKPEEPFQPVKEATQL [F92Q] | 0.109 | 0.0904 | 0.0549 | 0.0544 | – | 0.0549 | 0.0989 | 0.0882 | 0.0538 | 0.0665 | 0.0638 | 0.071 | – | – | – | 0.0518 | 0.0845 | 0.0822 | –
